Measurements taken from the supplement of paper PMC9446081.
About 220 (0.56%) of roughly 39,000 compounds showed activity. The list shows a part of the results.

tested on: Escherichia coli K-12 BW25113; assay: relative growth (OD600 normalised to plate interquartile mean) (fraction); higher = less growth inhibition, active = 0.2 or less; conditions: 50 µM; LB; incubation time: overnight (16-24 h)
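Further: static incubation at 37 °C against the wild-type strain, values averaged over two biological replicates.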

SMILES	relative growth
COc1ccc(NC(=O)Nc2ccc3c(c2)CC(=O)N([C@@H](C)CO)C[C@H](C)[C@H](CN(C)S(C)(=O)=O)O3)cc1	inactive: 1.05
O=c1c(O)c(-c2ccc(O)c(O)c2)oc2cc(O)ccc12	inactive: 0.825
CO[C@H]1CN(C)C(=O)c2ccc(NC(C)=O)cc2OC[C@@H](C)N(S(=O)(=O)c2cn(C)cn2)C[C@@H]1C	inactive: 1.01
NCc1cccc(-c2ccco2)c1	inactive: 0.983
CNS(=O)(=O)Cc1ccc2[nH]cc(CCN(C)C)c2c1	inactive: 0.993
COc1cccc(C#Cc2ccc3c(c2)O[C@@H](CN(C)S(=O)(=O)c2ccccc2F)[C@@H](C)CN([C@@H](C)CO)S3(=O)=O)c1	inactive: 1.01
C[C@@H]1CCCCO[C@H](CN(C)C(=O)Nc2ccc(C(F)(F)F)cc2)[C@H](C)CN([C@H](C)CO)C(=O)c2cc(NC(=O)Nc3ccccc3)ccc2O1	inactive: 1.01
O=C(NCC1(c2nc(-c3ccccc3)cs2)CCOCC1)c1cccc(-c2noc(C(F)(F)F)n2)c1	inactive: 0.969
COc1ccc(S(=O)(=O)Nc2ccc3c(c2)C(=O)N([C@H](C)CO)C[C@H](C)[C@@H](CN(C)Cc2ccccc2)OCCCC[C@@H](C)O3)cc1	inactive: 0.877
COC(=O)C(CC#Cc1ccc2c(c1)[C@]1(C(=O)N2)[C@H](c2ccc(OCCO)cc2)N2[C@H](c3ccccc3)[C@H](c3ccccc3)OC(=O)[C@H]2[C@@H]1C(=O)N1CCc2cc(OC)c(OC)cc2C1)C(=O)OC	inactive: 1.09
COCC(=O)N(C)C[C@@H]1Oc2cc(C#CC(C)(C)O)ccc2S(=O)(=O)N([C@H](C)CO)C[C@H]1C	inactive: 0.992
C[C@@H]1CN([C@@H](C)CO)C(=O)c2cc(NS(=O)(=O)c3cccs3)ccc2O[C@H]1CN(C)S(=O)(=O)c1ccc(F)cc1	inactive: 1.01
C#CCN(O[C@@H](/C=C/[C@@H](O)CCn1cc(-c2ccc(C(=O)NO)s2)nn1)C1CC1)[C@@H](Cc1ccccc1)C(=O)OC	inactive: 1
COCCOC(=O)N1C(=O)[C@@]2(c3ccccc31)[C@H](C(=O)N1CCCCCCC1)[C@H]1C(=O)O[C@H](c3ccccc3)[C@H](c3ccccc3)N1[C@@H]2c1ccccc1OCCO	inactive: 1.01
Nc1nc(=O)c2ncn([C@@H]3O[C@H](CO)[C@@H](O)[C@H]3O)c2[nH]1	inactive: 1.03
C[C@H](CO)N1C[C@H](C)[C@@H](CN(C)C(=O)Nc2ccc3c(c2)OCO3)OCCCC[C@H](C)Oc2ccc(NC(=O)Cc3ccccc3)cc2C1=O	inactive: 1.03
O=C(CCCl)NCc1ccccc1	inactive: 1.1
COc1cccc(S(=O)(=O)N2[C@@H]3CC[C@@H](C3)[C@H]2c2nc3cccc(OCc4ccc(F)cc4)c3[nH]2)c1	inactive: 1.06
CC12CCC3c4ccc(O)cc4CCC3C1CCC2O (centres undefined)	inactive: 1.01
O=C1[C@@H]2CCCN2C(=O)[C@@H]2CCCN12	inactive: 1.01
C=CCC(N)(CC=C)c1ccc(C)cc1	inactive: 1.02
CN1CCN([C@@H]2CCN(S(C)(=O)=O)[C@H]2Cc2cnn(C)c2)CC1	inactive: 1.03

SMILES	relative growth
O=C(C[C@H]1C[C@@H]2c3cc(NC(=O)Cc4ccncc4)ccc3O[C@@H]2[C@H](CO)O1)NCCN1CCCCC1	inactive: 0.986
C[C@@H]1CCCCO[C@@H](CN(C)C(=O)Nc2ccc3c(c2)OCO3)[C@@H](C)CN([C@H](C)CO)C(=O)c2cc(NC(=O)Nc3ccc(C(F)(F)F)cc3)ccc2O1	inactive: 0.988
C[C@H](CO)N1C[C@H](C)[C@H](CN(C)Cc2ccc(C(=O)Nc3ccccc3N)cc2)Oc2ccc(NC(=O)Cn3cnnn3)cc2C1=O	inactive: 1
NC(=O)[C@H]1CCN(c2ncnc(N)c2F)C[C@@H]1N1CCC[C@@H](Nc2cc(Cl)cc(C(F)(F)F)c2)C1=O	inactive: 0.985
COCC(=O)N1C[C@@H](C)[C@@H](OC)CN(C)C(=O)c2cc(NC(=O)Nc3cccc(F)c3)ccc2OC[C@@H]1C	inactive: 1
C[C@H](CO)N1C[C@H](C)[C@@H](CN(C)C(=O)c2ccccc2)OCCCC[C@H](C)Oc2ccc(NC(=O)C3CCCCC3)cc2C1=O	inactive: 0.988
CSCc1nc(=O)cc(C(=O)O)[nH]1	inactive: 0.996
C[C@H]1CN([C@@H](C)CO)C(=O)c2cccc(NC(=O)C3CCOCC3)c2O[C@H]1CN(C)C(=O)Nc1ccccc1	inactive: 0.901
C[C@@H]1CN([C@H](C)CO)C(=O)c2cc(NS(=O)(=O)c3ccc(F)cc3)ccc2O[C@H]1CN(C)Cc1ccc(Oc2ccccc2)cc1	inactive: 1.03
C[C@@H]1CN([C@H](C)CO)C(=O)c2cc(NC(=O)CCN3CCOCC3)ccc2O[C@@H]1CN(C)C(=O)Nc1ccccc1	inactive: 0.992
CCOC(=O)CSc1nc(=O)cc(C)[nH]1	inactive: 0.987
Cc1ccc(S(=O)(=O)Nc2cccc3c2O[C@@H](CN(C)S(=O)(=O)c2ccccc2)[C@@H](C)CN([C@H](C)CO)C3=O)cc1	inactive: 1.01
CC(C)(C)OC(=O)N1C[C@H]2C[C@@H]1C(=O)O2	inactive: 0.994
O=S(=O)(NCC[C@@H]1CC[C@H](NS(=O)(=O)c2ccccc2Cl)[C@H](CO)O1)c1ccc(Cl)cc1	inactive: 0.999
Cc1ccc(C2OC(CO)C(O)C(O)C2O)cc1Cc1ccc(-c2ccc(F)cc2)s1 (centres undefined)	inactive: 0.98
Cc1noc(C)c1S(=O)(=O)Nc1ccc2c(c1)CC(=O)N([C@H](C)CO)C[C@H](C)[C@@H](CN(C)S(=O)(=O)c1cn(C)cn1)O2	inactive: 0.999
Cc1ccc(F)c(S(=O)(=O)N2[C@@H]3CC[C@@H](C3)[C@H]2c2nc3cccc(OCc4ccc(F)cc4)c3[nH]2)c1	inactive: 1
COc1ccc(C2COc3c(ccc(O)c3OC)C2)c(OC)c1O (centres undefined)	inactive: 1.06
C[C@@H]1CN([C@@H](C)CO)C(=O)Cc2cc(NS(=O)(=O)c3ccccc3)ccc2O[C@H]1CN(C)Cc1ccc(Oc2ccccc2)cc1	inactive: 0.969
C[C@@H]1CN([C@H](C)CO)C(=O)c2cccc(NS(C)(=O)=O)c2O[C@H]1CN(C)S(=O)(=O)c1ccccc1	inactive: 0.986
C[C@H](CO)N1C[C@H](C)[C@H](CN(C)C(=O)Cc2cccnc2)Oc2cc(-c3cncnc3)ccc2S1(=O)=O	inactive: 0.996
NS(=O)(=O)c1cc2c(cc1Cl)N=CNS2(=O)=O	inactive: 1.01

SMILES	relative growth
Cc1noc(C)c1NC(=O)Nc1ccc2c(c1)C(=O)N([C@H](C)CO)C[C@@H](C)[C@H](CN(C)Cc1ccc3c(c1)OCO3)OCCCC[C@@H](C)O2	inactive: 1.01
CN(C)C(=O)C[C@@H]1C=C[C@@H](NC(=O)C2CC2)[C@H](CO)O1	inactive: 1.01
Cc1n[nH]c(N/N=C/c2ccccn2)nc1=O	inactive: 0.464
CC(=O)NCCCC[C@@H]1NC(=O)[C@@H]2C[C@H](C(=O)O)[C@H](c3ccc(O)cc3)N2C1=O	inactive: 0.968
Cc1ccc(S(=O)(=O)Nc2ccc3c(c2)C(=O)N([C@@H](C)CO)C[C@H](C)[C@H](CN(C)Cc2ccncc2)OCCCC[C@H](C)O3)cc1	inactive: 0.991
Cc1[nH]c(=O)c(C(=O)O)c2c1CCC2	inactive: 0.994
COCC(=O)N1C[C@H](C)[C@H](OC)CN(C)C(=O)c2ccc(NC(=O)c3ccc(OC)cc3)cc2OC[C@@H]1C	inactive: 1.02
C[C@H](CO)N1C[C@H](C)[C@@H](CN(C)S(=O)(=O)c2cccs2)Oc2ccc(NC(=O)CCC(F)(F)F)cc2CC1=O	inactive: 0.987
C[C@@H]1CN([C@@H](C)CO)S(=O)(=O)c2ccc(-c3cccnc3)cc2O[C@H]1CN(C)C(=O)NC1CCCC1	inactive: 0.987
Cc1ccc(S(=O)(=O)N(C)C[C@@H]2OCCCC[C@H](C)Oc3ccc(NC(=O)CCCCCC(=O)Nc4ccccc4N)cc3C(=O)N([C@H](C)CO)C[C@@H]2C)cc1	inactive: 1.02
C[C@H](CO)N1C[C@H](C)[C@@H](CN(C)C(=O)NC2CCCC2)Oc2cc(-c3cncnc3)ccc2S1(=O)=O	inactive: 0.96
O=C(C[C@@H]1CC[C@@H]2[C@H](COC[C@@H](O)CN2S(=O)(=O)c2ccccc2F)O1)NCc1ccccc1F	inactive: 1.01
COc1ccc(-c2nc3cc(C4=NNC(=O)CC4C)ccc3[nH]2)cc1 (centres undefined)	inactive: 1.05
C[C@@H]1CN([C@@H](C)CO)C(=O)Cc2cc(NC(=O)NC3CCCCC3)ccc2O[C@H]1CN(C)Cc1ccc(C(=O)Nc2ccccc2N)cc1	inactive: 0.98
C[C@@H]1CCCCO[C@@H](CN(C)C(=O)c2ccccc2)[C@@H](C)CN([C@@H](C)CO)C(=O)c2cc(NS(=O)(=O)c3ccccc3)ccc2O1	inactive: 1.01
COc1ccc(S(=O)(=O)N(C)C[C@H]2OCCCC[C@H](C)Oc3ccc(NC(=O)C4CCCCC4)cc3C(=O)N([C@@H](C)CO)C[C@@H]2C)cc1	inactive: 0.987
CCNC(=O)C[C@@H]1CC[C@@H]2[C@H](COC[C@H](O)CN2S(=O)(=O)c2ccc(Oc3ccccc3)cc2)O1	inactive: 0.995
NNC(=O)c1cc2ccccc2[nH]1	inactive: 0.98
O=C1CN(S(=O)(=O)Cc2ccccc2)C[C@@H]2[C@@H](c3ccc(C#Cc4ccc(F)cc4)cc3)[C@@H](CO)N12	inactive: 0.996
Cc1noc(C)c1S(=O)(=O)N(C)C[C@H]1Oc2c(NC(=O)c3cnccn3)cccc2C(=O)N([C@H](C)CO)C[C@H]1C	inactive: 1.01
